# Test results from PMC4336329 (PLoS ONE, 2015).
# The campaign covered roughly 310,000 compounds. About 14,000 (4.5%) showed an effect of 50% or more. Effects have a minus sign here. Some of the results follow.
# Molecular target: human ether-à-go-go-related gene (hERG) potassium channel (human, UniProt Q12809)
# Experiment: primary screen, population patch clamp on CHO cells stably expressing hERG
# 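Also: peak tail current of the secondary pulse compared with the same well before compound.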
# human ether-à-go-go-related gene (hERG) potassium channel, sequence (Q12809 whole entry, looked up): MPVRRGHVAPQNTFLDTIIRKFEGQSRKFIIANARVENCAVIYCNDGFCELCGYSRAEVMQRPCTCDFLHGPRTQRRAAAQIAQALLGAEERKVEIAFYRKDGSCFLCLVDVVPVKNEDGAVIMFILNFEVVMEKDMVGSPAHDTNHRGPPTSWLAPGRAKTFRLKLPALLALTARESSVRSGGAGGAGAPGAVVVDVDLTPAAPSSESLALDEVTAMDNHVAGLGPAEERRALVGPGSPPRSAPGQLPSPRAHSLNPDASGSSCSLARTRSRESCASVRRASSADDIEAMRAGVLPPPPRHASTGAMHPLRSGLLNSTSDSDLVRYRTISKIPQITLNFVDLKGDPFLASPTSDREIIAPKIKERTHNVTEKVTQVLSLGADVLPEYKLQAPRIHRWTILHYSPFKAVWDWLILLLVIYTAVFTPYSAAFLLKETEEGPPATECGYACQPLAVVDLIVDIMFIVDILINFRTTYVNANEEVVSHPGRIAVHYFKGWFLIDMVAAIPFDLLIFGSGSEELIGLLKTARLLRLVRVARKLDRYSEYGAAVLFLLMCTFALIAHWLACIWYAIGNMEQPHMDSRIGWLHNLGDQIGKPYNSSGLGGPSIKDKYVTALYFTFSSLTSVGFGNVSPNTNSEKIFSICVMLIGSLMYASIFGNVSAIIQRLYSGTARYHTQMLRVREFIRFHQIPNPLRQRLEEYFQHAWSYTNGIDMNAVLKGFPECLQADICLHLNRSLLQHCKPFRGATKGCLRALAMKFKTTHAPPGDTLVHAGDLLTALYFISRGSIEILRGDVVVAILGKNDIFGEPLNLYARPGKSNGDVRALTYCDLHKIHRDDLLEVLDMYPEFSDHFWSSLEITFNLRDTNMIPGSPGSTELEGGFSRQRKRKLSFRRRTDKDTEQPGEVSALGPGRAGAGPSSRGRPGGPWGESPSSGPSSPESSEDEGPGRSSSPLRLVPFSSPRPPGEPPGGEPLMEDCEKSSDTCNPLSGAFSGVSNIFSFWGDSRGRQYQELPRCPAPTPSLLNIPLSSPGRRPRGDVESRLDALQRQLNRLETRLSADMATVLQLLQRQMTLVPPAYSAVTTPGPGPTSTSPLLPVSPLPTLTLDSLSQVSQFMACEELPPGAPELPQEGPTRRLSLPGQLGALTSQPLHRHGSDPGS
row,Compound,"hERG current change (%, negative = inhibition) at 10uM"
1,CC(C)(C)NCC(O)c1cc(O)cc(O)c1.O=S(=O)(O)O (stereo not drawn),16.7%
2,Cc1ccc(NC(=S)Nc2ccc(F)cc2)cc1,8.35%
3,CCC(=O)Nc1ccc(NC(=O)c2ccco2)c(OC)c1,1.99%
4,COc1cc(C(=O)NC(C)c2ccc(-n3ccnc3)cc2)cc(OC)c1C (stereo not drawn),-72.9%
5,Cc1ccc(S(=O)(=O)N2CCN(c3cc4c(cc3[N+](=O)[O-])n(C)c(=O)n4C)CC2)cc1,-4.2%
6,COC(=O)c1ccc(NS(=O)(=O)c2c(C)[nH]c(C)c2C(=O)N2CCCC2)cc1,6.6%
7,CCN1CCN(CCNC(=O)c2ccc(CS(=O)(=O)c3c(Cl)cccc3Cl)o2)CC1,-8.19%
8,O=C(CSc1nc(-c2ccccc2)cs1)Nc1cccc([N+](=O)[O-])c1,6.45%
9,COc1cc2[nH]c(=O)n(Cc3ccc(C(=O)NCCCN4CCN(C)CC4)cc3)c(=O)c2cc1OC,7.67%
10,CCCc1nc2oc3c(OC)ncnc3c2c2c1COC(C)(C)C2,-21.5%
11,COc1cc(/C=C/C(=O)OCC(=O)NCC2CCCO2)ccc1OCC#N (stereo not drawn),5.63%
12,CCO[C@@H]1OC(C(=O)NC2CC2)=C[C@H](C2CC2)[C@H]1CCCO,3.98%
13,Cc1csc(SCC(=O)N(C)CC(=O)Nc2ccc(F)cc2)n1,15.6%
14,N#Cc1ccc(CNc2cnccn2)cc1,-17.5%
15,O=C(c1ccccc1F)N1CCN(c2ccc([N+](=O)[O-])c(NCc3cccnc3)c2)CC1,-45.5%
16,COc1ccc(CN2C(=O)C(CC(C)C)Nc3ncnc(N4CCN(c5ccccn5)CC4)c32)cc1.O=C(O)C(F)(F)F (stereo not drawn),-45.9%
17,COc1cc(OC)c2c(c1)OC(c1ccc(OC)c(OC)c1)C(O)C2=O (stereo not drawn),-1.88%
18,CC(O)c1nc2ccccc2n1Cc1ccccc1 (stereo not drawn),3.15%
19,N#C/C(=C\C=C\c1ccccc1)c1nc(-c2ccc3c(c2)OCO3)cs1,-3.96%
20,CCOc1ccc(Br)cc1S(=O)(=O)Nc1cccnc1,15.4%
21,Cc1cc(=O)oc2cc(OS(C)(=O)=O)ccc12,4.31%
22,C=CCn1cc(C(=O)N2CCN(CC)CC2)c(=O)c2cc(S(=O)(=O)N(CC)CC)ccc21,-2.83%

row,Compound,"hERG current change (%, negative = inhibition) at 10uM"
1,CC(c1cccs1)N(Cc1ccco1)C(=S)Nc1ccc(F)c(Cl)c1 (stereo not drawn),3.53%
2,CCOc1ccccc1C(=O)NCC(=O)OCc1csc(CC(=O)Nc2ccc(C)cc2)n1,-1.41%
3,COc1ccc(S(=O)(=O)NC(C)C(=O)Nc2ccccc2)cc1Cl (stereo not drawn),6.81%
4,O=C(c1cccc(C(F)(F)F)c1)N1CCC(O)(CS(=O)(=O)Cc2ccc(Cl)cc2)CC1,17.5%
5,CNC(=S)N/N=C/c1ccc(OCC(=O)Nc2c(C)cc(C)cc2C)c(OC)c1,0.125%
6,O=[N+]([O-])c1ccc2nc(/C=C/c3ccc(Cl)cc3)[nH]c2c1,0.855%
7,O=C(COC(=O)C1Cc2ccccc2CN1C(=O)c1ccccc1Cl)Nc1ccc(N2CCOCC2)cc1 (stereo not drawn),-7.59%
8,Cc1cc(C)c(C(=O)COC(=O)CNC(=O)c2ccccc2C)c(C)c1,-12.7%
9,COc1cccc(NC(=O)c2ccc(-n3cccn3)nc2)c1,10.9%
10,Cc1nc(SCC(=O)O)c(C#N)c2c1CCCC2,-10.9%
11,O=C(c1ccc(S(=O)(=O)Nc2ccccc2)cc1)N1CCCCCCC1,2.5%
12,COc1ccc(/C=C(\NC(=O)c2ccc(OC)cc2)C(=O)Nc2cccc(C(=O)O)c2)cc1,8.54%
13,O=C(NCCCO)c1cc2ccccc2[nH]1,4.15%
14,CC(=O)c1ccc(NC(=O)CNCC(c2ccccc2)N(C)C)cc1.O=C(O)C(=O)O (stereo not drawn),2.26%
15,COc1cccc(OCc2cc(C(=O)N(C)Cc3nc4ccccc4[nH]3)no2)c1,-37.1%
16,CCN(CC)CCCNC(=O)CSc1nc(-c2cccs2)cc(C(F)(F)F)n1,-33.4%
17,O=C(NCCc1ccccc1)c1ccccc1SCC(=O)N1CCCC1,-51.3%
18,COc1ccc(C(=O)NCCN2CCCC2)cc1OC.Cl,1.55%
19,CCCOc1ccc(NC(=O)c2c(-c3ccccc3)noc2C)cc1,-11.7%
20,O=C(c1cccnc1)N1CCN(S(=O)(=O)c2ccc(Cl)cc2)CC1,-22.1%
21,C=CCN(CC=C)CCCOc1ccccc1C(=O)OC.O=C(O)C(=O)O,-72.4%
22,O=C(N/N=C/c1ccc(N2CCOCC2)cc1)c1ccc(O)cc1,9.61%

row,Compound,"hERG current change (%, negative = inhibition) at 10uM"
1,COc1cc(C(=O)NCCCN2CCCC2=O)cc(OC)c1OC,-2.96%
2,O=C(NCCCNC(=O)c1cnccn1)c1ccc(Cl)c(Cl)c1,-15.6%
3,Cc1ccc2cc(CCNC(=O)c3c(-c4ccccc4Cl)noc3C)c(=O)[nH]c2c1,1.48%
4,COc1ccc(/C=N/N2C(=O)C3C4C=CC(CC4)C3C2=O)c(OC)c1 (stereo not drawn),7.79%
5,COc1ccc2cc3cc(C(=O)NCc4ccc5c(c4)OCO5)oc3nc2c1,5.61%
6,CC(C)(C)c1ccc(Cn2nc(CC(=O)O)c3ccccc3c2=O)cc1,16.9%
7,OC(COC(c1ccccc1)c1ccccc1)CN1CCc2ccccc2C1 (stereo not drawn),-76.9%
8,Cc1ccccc1NS(=O)(=O)c1cc2c3c(c1)CC(=O)N3CCC2,-13.6%
9,Cc1cccc(C2c3[nH]c4ccccc4c3CCN2Cc2cnn(-c3ccc(F)cc3)c2)n1 (stereo not drawn),1.48%
10,OC1=C(O)c2nc3cc(C(F)(F)F)ccc3nc21,0.992%
11,CN(C)C(=O)N1CCC(C(=O)NCc2ccc(F)cc2Cl)CC1,3.93%
12,COC(=O)c1c(NC(=O)CN2CCN(c3ccccc3Cl)CC2)sc(C)c1C,0.368%
13,O=C(Cc1ccc(NC2=NC3CS(=O)(=O)CC3S2)cc1)N1CCN(c2ccc(F)cc2)CC1 (stereo not drawn),20.2%
14,CCC(C(=O)NNC(=O)c1cnccn1)c1ccccc1 (stereo not drawn),9.26%
15,Cc1oc(-c2ccccc2F)nc1CS(=O)CC(=O)NCc1cccs1 (stereo not drawn),-12%
16,O=C(CCN1C(=O)/C(=C\c2ccc(F)cc2)SC1=S)Nc1ccccc1,21.5%
17,Cc1ccccc1N1CC(C(=O)Nc2ccncc2)CC1=O (stereo not drawn),-8.15%
18,CCOC(=O)NN1C(=O)c2ccccc2NC1c1ccc(OC)cc1OC (stereo not drawn),-4.55%
19,Cc1cc(-c2nn(C)c(=O)c3ccccc23)cc(C)c1O,0.868%
20,Cc1cc(C)c(C(=O)COC(=O)c2cc([N+](=O)[O-])ccc2NCCO)cc1C,-6.63%
21,CC(C)N(C(=O)COC(=O)c1ccc(Cl)c(S(N)(=O)=O)c1)C(C)C,16.8%
22,Cc1cc(CNC(=O)c2cccc([N+](=O)[O-])c2C)c2ccccc2n1,-53%

row,Compound,"hERG current change (%, negative = inhibition) at 10uM"
1,CC(=O)C1=C(O)C(=O)N(Cc2ccccc2)C1c1ccc(N(C)C)cc1 (stereo not drawn),14.5%
2,O=c1c2c3c(sc2ncn1/N=C/c1ccc(Br)o1)CCCC3,-5.03%
3,CC(C)Nc1nc(SC(C)C(=O)Nc2ccccc2)nc(N(C)C)n1 (stereo not drawn),-51.4%
4,CCN(Cc1ccncc1)S(=O)(=O)c1ccc(C(C)=O)cc1,-28.2%
5,O=C(Nc1ccc([N+](=O)[O-])cn1)c1cc(-c2cccc(Br)c2)nc2ccccc12,17.6%
6,C=CCn1c(SCc2ccccc2F)nc2cc(C(=O)O)ccc2c1=O,34.1%
7,COc1ccc(CN2CCN(C(=O)c3ccccc3F)CC2)c(OC)c1OC,12%
8,CC(=O)Nc1ccc(NC(=O)C(C)OC(=O)C(C)SCC(=O)Nc2ccc(F)cc2)cc1 (stereo not drawn),12%
9,O=C(COc1ccccc1)N1CCN(CC2CC3C=CC2C3)CC1.O=C(O)C(=O)O (stereo not drawn),-19.3%
10,COc1ccc(N2CCN(C(=O)CN3C(=O)NC4(CCCCCC4)C3=O)CC2)cc1,5.58%
11,C=CCNc1cc(=O)n(Cc2ccccc2)c(=O)[nH]1,16%
12,COc1cc2c(C#N)c(N3CCCC3)nc(N)c2c(N)n1,7.53%
13,CCOc1ccc(N(CC(=O)Nc2nccs2)S(=O)(=O)c2c(C)[nH]c(=O)[nH]c2=O)cc1,29%
14,CCN(CC)C(=S)Nc1ccc(OC)cc1,37.4%
15,CN1CCN(C(=O)CSc2nc3c(c(=O)n(C)c(=O)n3C)n2C)CC1,3.06%
16,COC(=O)CN(c1ccccc1F)S(=O)(=O)c1ccccc1,4.5%
17,O=C(Oc1ccccc1)c1ccc(-n2cnnn2)cc1,12.7%
18,CC(C)CCN(C(=S)Nc1cccc(F)c1)C1CCN(C(C)C)CC1,-42.9%
19,CC(C)(C)OC(=O)N1CCN(C(=O)Cn2cc(CCO)nn2)CC1,35.9%
20,CCOC(=O)N/N=C(/C)c1ccc(N2C(=O)C3CCCCC3C2=O)cc1 (stereo not drawn),20.3%
21,CCCN1CNC(=S)N(c2ccc(C)cc2C)C1,9.15%
